# Test results: patent US20250223331A1, “GLP-1/GIP DUAL-TARGETED POLYPEPTIDE AND FUSION PROTEIN AND APPLICATIONS THEREOF” (SUNSHINE LAKE PHARMA CO., LTD., priority 2021, published 2025)
# T1: GIPR (UniProt P48546 22-466, limits assumed)
# T1 sequence (looked up): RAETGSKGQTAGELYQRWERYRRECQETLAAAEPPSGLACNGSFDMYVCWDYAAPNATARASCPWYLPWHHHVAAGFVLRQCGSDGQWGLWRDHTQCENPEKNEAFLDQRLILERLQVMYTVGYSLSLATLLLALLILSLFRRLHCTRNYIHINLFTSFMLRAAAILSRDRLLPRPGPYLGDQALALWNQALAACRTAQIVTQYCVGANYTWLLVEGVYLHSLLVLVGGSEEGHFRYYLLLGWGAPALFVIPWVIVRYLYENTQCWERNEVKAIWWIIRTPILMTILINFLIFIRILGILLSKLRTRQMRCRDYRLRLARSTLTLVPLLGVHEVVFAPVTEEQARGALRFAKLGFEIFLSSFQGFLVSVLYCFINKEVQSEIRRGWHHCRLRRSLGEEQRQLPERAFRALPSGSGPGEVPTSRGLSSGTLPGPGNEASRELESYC
# Legend:
# GLP-1R = GLP-1R (UniProt P43220); assay: cell-based or functional assay
# GIPR = molecular target: T1, GIPR; assay: cell-based or functional assay
Binder,"EC50, cAMP (GLP-1R) [nM]","EC50, cAMP (GIPR) [nM]"
HEC-G69 (Fc fusion) YGEGTFTSDYSIYLDKLAQQDFVEWLLAGGPSSGAPPPSGGGGSGGGGSGGGGSA[here human IgG4 Fc with S228P F234A L235A (EU numbers) without letters],38.9,0.332
HEC-G73 (Fc fusion) YGEGTFTSDYSIYLDKKAQRAFIDWLLAGGPSSGAPPPSGGGGSGGGGSGGGGSA[here human IgG4 Fc with S228P F234A L235A (EU numbers) without letters],0.155,5.93
HEC-G71 (Fc fusion) YGEGTFTSDYSIYLDKKAQREFIDWLLAGGPSSGAPPPSGGGGSGGGGSGGGGSA[here human IgG4 Fc with S228P F234A L235A (EU numbers) without letters],0.252,1.04
HEC-G72 (Fc fusion) YGEGTFTSDYSIYLDKKAQRDFIDWLLAGGPSSGAPPPSGGGGSGGGGSGGGGSA[here human IgG4 Fc with S228P F234A L235A (EU numbers) without letters],0.281,0.372
HEC-G74 (Fc fusion) YGEGTFTSDYSIYLDKKAQRDFIEWLIAQGPSSGAPPPSGGGGSGGGGSGGGGSA[here human IgG4 Fc with S228P F234A L235A (EU numbers) without letters],2,0.552
HEC-G89 (Fc fusion) YGEGTFTSDYSIALDKQAQRDFVEWLLAGGPSSGAPPPSGGGGSGGGGSGGGGSA[here human IgG4 Fc with S228P F234A L235A (EU numbers) without letters],2.66,0.288
HEC-G87 (Fc fusion) YGEGTFTSDYSIYLDKIAQRDFIEWLIAGGPSSGAPPPSGGGGSGGGGSGGGGSA[here human IgG4 Fc with S228P F234A L235A (EU numbers) without letters],0.127,0.266
HEC-G86 (Fc fusion) YGEGTFTSDYSIYLDKKHQRDFIEWLIAGGPSSGAPPPSGGGGSGGGGSGGGGSA[here human IgG4 Fc with S228P F234A L235A (EU numbers) without letters],0.651,5.5
HEC-G88 (Fc fusion) YGEGTFTSDYSIYLDKKAQQDFIEWLIAGGPSSGAPPPSGGGGSGGGGSGGGGSA[here human IgG4 Fc with S228P F234A L235A (EU numbers) without letters],0.155,0.258
HEC-G81 (Fc fusion) YGEGTFTSDYSIALDKQAQRDFVEWLIAGGPSSGAPPPSGGGGSGGGGSGGGGSA[here human IgG4 Fc with S228P F234A L235A (EU numbers) without letters],0.427,0.922
HEC-G75 (Fc fusion) YGEGTFTSDYSIYLDKKAQRDFVEWLIAQGPSSGAPPPSGGGGSGGGGSGGGGSA[here human IgG4 Fc with S228P F234A L235A (EU numbers) without letters],0.876,1.82
HEC-G90 (Fc fusion) YGEGTFTSDYSIYLDKQAQQDFVEWLLAGGPSSGAPPPSGGGGSGGGGSGGGGSA[here human IgG4 Fc with S228P F234A L235A (EU numbers) without letters],105,0.945
HEC-G92 (Fc fusion) YGEGTFTSDYSIYLDKQAQRDFVNWLLAGGPSSGAPPPSGGGGSGGGGSGGGGSA[here human IgG4 Fc with S228P F234A L235A (EU numbers) without letters],1.64,0.677
HEC-G84 (Fc fusion) YGEGTFTSDYSIYLDKQHQRDFVEWLIAGGPSSGAPPPSGGGGSGGGGSGGGGSA[here human IgG4 Fc with S228P F234A L235A (EU numbers) without letters],6.03,8.97
HEC-G77 (Fc fusion) YGEGTFTSDYSIILDKKAQRDFVEWLLAGGPSSGAPPPSGGGGSGGGGSGGGGSA[here human IgG4 Fc with S228P F234A L235A (EU numbers) without letters],3.88,4.84
HEC-G70 (Fc fusion) YGEGTFTSDYSIYLDKKAQREFVEWLLAGGPSSGAPPPSGGGGSGGGGSGGGGSA[here human IgG4 Fc with S228P F234A L235A (EU numbers) without letters],0.684,3.88
HEC-G83 (Fc fusion) YGEGTFTSDYSIYLDKIAQRDFVEWLIAGGPSSGAPPPSGGGGSGGGGSGGGGSA[here human IgG4 Fc with S228P F234A L235A (EU numbers) without letters],0.125,0.732
HEC-G85 (Fc fusion) YGEGTFTSDYSIYLDKKAQRDFINWLIAGGPSSGAPPPSGGGGSGGGGSGGGGSA[here human IgG4 Fc with S228P F234A L235A (EU numbers) without letters],0.045,0.326
HEC-G82 (Fc fusion) YGEGTFTSDYSIYLDKQAQRDFVEWLLAQGPSSGAPPPSGGGGSGGGGSGGGGSA[here human IgG4 Fc with S228P F234A L235A (EU numbers) without letters],6.53,0.172
HEC-G78 (Fc fusion) YGEGTFTSDYSIALDKKAQRDFIEWLIAGGPSSGAPPPSGGGGSGGGGSGGGGSA[here human IgG4 Fc with S228P F234A L235A (EU numbers) without letters],0.226,1.08
HEC-G76 (Fc fusion) YGEGTFTSDYSIYLDKKAQRDFVQWLLAGGPSSGAPPPSGGGGSGGGGSGGGGSA[here human IgG4 Fc with S228P F234A L235A (EU numbers) without letters],0.714,5.01
HEC-G91 (Fc fusion) YGEGTFTSDYSIYLDKIAQRDFVEWLLAGGPSSGAPPPSGGGGSGGGGSGGGGSA[here human IgG4 Fc with S228P F234A L235A (EU numbers) without letters],5.7,2.15
